Some of the results follow.
B1: Q9UKT9 (peptide)
chain: FLCEICGHQFTQKGNLLRHIKL
B2: Q9UKT9 (peptide)
chain: FDCDQCGAFFTQKGNLLRHIKL
B3: Q9UKT9 (peptide)
chain: FHCEICGRYFTQKGNLLRHIKL
B4: Q9UKT9 (peptide)
chain: FMCEICGAWFTQKGNLLRHIKL
B5: Q9UKT9 (peptide)
chain: FMCNVCGANFTQKGNLLRHIKL
B6: Q9UKT9 (peptide)
chain: LDCNQCGFHCTQKGNLLRHIKL
B7: Q9UKT9 (peptide)
chain: FNCPICGRWFTQKGNLLRHIKL
B8: Q9UKT9 (peptide)
chain: FICDVCGADFTQKGNLLRHIKL
B9: Q9UKT9 (peptide)
chain: FICDICGAWFTQKGNLLRHIKL
B10: Q9UKT9 (peptide)
chain: FGCNICGAIFTQKGNLLRHIKL
B11: Q9UKT9 (peptide)
chain: FSCDICGAHFTQKGNLLRHIKL
B12: Q9UKT9 (peptide)
chain: FVCPQCGALFTQKGNLLRHIKL
B13: Q9UKT9 (peptide)
chain: FMCPICGRNFTQKGNLLRHIKL
B14: Q9UKT9 (peptide)
chain: LVCPICGFDCTQKGNLLRHIKL
B15: Q9UKT9 (peptide)
chain: FSCEICGHGFTQKGNLLRHIKL
B16: Q9UKT9 (peptide)
chain: FGCSVCGHKFTQKGNLLRHIKL
B17: Q9UKT9 (peptide)
chain: FWCPICGAMFTQKGNLLRHIKL
B18: Q9UKT9 (peptide)
chain: FLCDQCGAMFTQKGNLLRHIKL
B19: Q9UKT9 (peptide)
chain: LECNQCGFSCTQKGNLLRHIKL
B20: Q9UKT9 (peptide)
chain: FECPICGACFTQKGNLLRHIKL
B21: Q9UKT9 (peptide)
chain: FQCPICGHSFTQKGNLLRHIKL
B22: Q9UKT9 (peptide)
chain: FDCEVCGACFTQKGNLLRHIKL
B23: Q9UKT9 (peptide)
chain: FDCNICGASFTQKGNLLRHIKL
B24: Q9UKT9 (peptide)
chain: FHCEICGHNFTQKGNLLRHIKL
B25: Q9UKT9 (peptide)
chain: FMCEQCGADFTQKGNLLRHIKL
B26: Q9UKT9 (peptide)
chain: LWCPICGFKCTQKGNLLRHIKL
B27: Q9UKT9 (peptide)
chain: FLCNICGAVFTQKGNLLRHIKL
B28: Q9UKT9 (peptide)
chain: FSCDVCGAVFTQKGNLLRHIKL
B29: Q9UKT9 (peptide)
chain: FCCEQCGADFTQKGNLLRHIKL
B30: Q9UKT9 (peptide)
chain: FTCNQCGRIFTQKGNLLRHIKL
B31: Q9UKT9 (peptide)
chain: FVCDQCGANFTQKGNLLRHIKL
B32: Q9UKT9 (peptide)
chain: FHCPICGRWFTQKGNLLRHIKL

target: no compound (DMSO); test: log2 fold change of degron read counts, EGFP-low vs EGFP+ sorted cells; higher = lower degron-EGFP level without compound (poor expression or instability); settings: compound: DMSO control; 18 h
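Note: jurkat cells carrying a lentiviral library of mutant zinc finger degrons fused to EGFP plus mCherry, mCherry+ cells FACS sorted, degron abundance counted by next-generation sequencing.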

Sequence | log2 fold change of degron read counts
B1 | -2.36
B2 | 0.156
B3 | -0.769
B4 | -0.612
B5 | -1.49
B6 | 0.158
B7 | 0.756
B8 | -2.89
B9 | -0.549
B10 | 0.509
B11 | -1.26
B12 | -0.248
B13 | -0.324
B14 | 0.764
B15 | -0.794
B16 | 0.197

Sequence | log2 fold change of degron read counts
B17 | 1.11
B18 | -1.8
B19 | -0.315
B20 | -0.884
B21 | -0.4
B22 | -1.37
B23 | -1.52
B24 | -1.67
B25 | -2.69
B26 | 1.76
B27 | -0.153
B28 | -1.54
B29 | -2.46
B30 | -0.132
B31 | -1.73
B32 | 0.196

— the supplement of paper PMC12645437, “Orthogonal IMiD-Degron Pairs Induce Selective Protein Degradation in Cells” (ACS Chemical Biology, 2025)
